Results reported in US20240082414A1, “HUMAN TUMOR NECROSIS FACTOR ALPHA ANTIBODY GLUCOCORTICOID CONJUGATES” (Eli Lilly and Company, priority 2022, published 2024).
Changes are numbered by the printed parent chain.

Experiments:
[1] = tested on: anti-drug antibodies against adalimumab; assay: ACE-Bridge binding to human patient anti-drug antibodies against adalimumab; conditions: FIG. 4
[2] = biological target: soluble human TNFα (Homo sapiens, UniProt P01375); assay: Inhibition of soluble TNFα induced apoptosis of L929 cells; type: cell-based
Procedure: L929 mouse fibrosarcoma cells naturally express the TNF receptor. When combined with Actinomycin-D, TNFα induces classical apoptosis in these cells, resulting in rapid cell death due to excessive formation of reactive oxygen intermediates which can be rescued by TNFα neutralization. Briefly, L929 were cultured in assay medium (1× DMEM media, 10% FBS, 1% Pen-Strep, 1% MEM essential amino acids, 1% L-glutamine, 1% sodium pyruvate). On the day of the assay, the cells were rinsed with 1× PBS (no Ca^++ or Mg^++) and detached from culture flasks with 0.25% trypsin+EDTA. The trypsin was inactivated with assay medium. L929 cells were centrifuged at 1500 rpm for 5 minutes at room temperature. The cell pellet was resuspended in assay medium, and 1×10^4 L929 cells (in 100 μL) were added to 96-well plates and placed in a tissue culture incubator (37° C., 95% relative humidity, 5% CO2) overnight.
(§1) To determine number of viable cells, assay medium was removed, and MTS-tetrazolium substrate mixture was added to the wells (100 μL) (where the mitochondrial dehydrogenase enzymes in metabolically active cells reduces the MTS-tetrazolium into a colored formazan product). The plates were placed in an incubator (37° C., 95% relative humidity, 5% CO2) for 2 hours. The cell death was determined by reading the plates at 490 nm on a microplate reader (Biotek Cytation 5 Imaging Multi-Mode Reader).

[3] = tested on: membrane human TNFα; assay: Inhibition of membrane TNFα induced apoptosis of L929 cells; type: cell-based
Procedure: as §1
The non-cleavable TNFα construct was generated with known mutations at the cleavage sites of the TNFα which allowed for expression of bioactive TNFα on the cell surface (Mueller et. al. 1999) in the absence of TNFα cleavage. […] Human IgG1 isotype control antibody was used as a negative control. The L929 cell death was determined essentially as described for the soluble TNFα induced apoptosis assay.

[4] = tested on: anti-drug antibodies against adalimumab; assay: ACE-Bridge binding to cynomolgus monkey anti-drug antibodies against adalimumab; conditions: FIG. 3
Procedure: Example 5a. […] The anti-adalimumab antibodies were detected using a titration of AP-HIMS in an ACE-Bridge assay. The assay was developed following the FDA Guidance on Immunogenicity testing. […] The following day, plates were washed three times with TBST and the captured anti-adalimumab antibodies were acid eluted using 65 μL/well of 300 mM acetic acid (Fisher Scientific, A38-500) for 5 min at room temperature. […] Next, 50 μL of the acid eluted samples were added to the polypropylene plate containing the mixture in neutralizing buffer and the ADA and were allowed to bridge to the labeled antibodies for 1 h at room temperature. MSD Gold 96-well streptavidin plates (Mesoscale, L15SA-1) were washed and blocked with TBS+1% BSA for 1 h at room temperature, then washed, and 80 μL of bridged samples were added to the plate for 1 h. The plates were washed three times with TBST, and 150 μL/well of 2×MSD Buffer (Mesoscale, R92TC-2) was added to the plates. Plates were read on an MSD SQ120 reader to provide the Tier 1 signal expressed as electro chemiluminescent units (ECLU).
The resulting ECLU signal was then plotted as a function of the concentration of AP-HIMS tested.

[5] = tested on: dendritic cells; assay: Internalization into dendritic cells; type: cell-based, human; conditions: upon binding to TNFα on the cell surface
Procedure: Example 3a. […] CD14+monocytes were isolated from periphery blood mononuclear cells (PBMCs), cultured, and differentiated into immature dendritic cells (with IL-4 and GM-CSF), all using standard protocols. To obtain mature DCs, cells were treated with 1 μg/mL LPS (lipopolysaccharide) for 4 hours.
Cells were washed with 2% FBS PBS and resuspended in 100 μL 2% FBS PBS with Cytox Green live/dead dye. Data was collected on a BD LSR Fortessa X-20 and analyzed in FlowJo. Live single cells were gated, and percent of TAMRA fluorescence positive cells was recorded as the readout. To allow the comparison of molecules with data generated from different donors, a normalized internalization index was used. The internalization signal was normalized to IgG1 isotype (normalized internalization index=0) and an internal positive control PC (normalized internalization index=100) using the calculation:
where XTAMRA, IgG1 isotypeTAMRA, and PCTAMRA were the percent of TAMRA-positive population for the test molecule X, IgG1 isotype, and PC respectively.

[6] = tested on: MHC-II presented peptides on human dendritic cells; assay: MHC-associated peptide proteomics (MAPPs) assay; type: cell-based; conditions: 10 donors
Procedure: Example 6a. MHC-associated peptide proteomics (MAPPs) Assay: MAPPs profiles the MHC-II presented peptides on human dendritic cells previously treated with exemplified anti-human TNFα antibodies. CD14+monocytes were isolated from periphery blood mononuclear cells (PBMCs), cultured and differentiated into immature dendritic cells (with IL-4 and GM-CSF) using standard protocols. Exemplified antibodies were added to the immature dendritic cells on day 4 and fresh media containing LPS to transform the cells into mature dendritic cells was exchanged after 5-hour incubation. The matured dendritic cells were lysed in RIPA buffer with protease inhibitors and DNAse the following day. Immunoprecipitation of MHC-II complexes was performed using biotinylated anti-MHC-II antibody coupled to streptavidin beads. The bound complex was eluted and filtered. The isolated MHC-II peptides were analyzed by a mass spectrometer. Peptide identifications were generated by an internal proteomics pipeline using search algorithms with no enzyme search parameter against a bovine/human database with test sequences appended to the database. Peptides identified from the exemplified antibodies were aligned against the parent sequence.

Sequence of soluble human TNFα (P01375 77-233 limits assumed): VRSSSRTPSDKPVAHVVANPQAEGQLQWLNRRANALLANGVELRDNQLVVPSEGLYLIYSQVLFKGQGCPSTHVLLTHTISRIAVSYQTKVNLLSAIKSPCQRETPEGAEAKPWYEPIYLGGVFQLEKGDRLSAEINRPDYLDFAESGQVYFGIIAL

B1: Ab6: anti-human TNFα antibody, HC SEQ ID NO: 35, LC SEQ ID NO: 36 (antibody)
heavy: QVQLVQSGAEVKKPGASVKVSCKASGYTFTGYYIHWVRQAPGQGLEWMGWINPYTGGTNYAQKFQGRVTMTRDTSISTAYMELSRLRSDDTAVYYCARDIYGSSNYGGDVWGQGTTVTVSSASTKGPSVFPLAPSSKSTSGGTAALGCLVKDYFPEPVTVSWNSGALTSGVHTFPAVLQSSGLYSLSSVVTVPSSSLGTQTYICNVNHKPSNTKVDKRV[left out - human IgG1 Fc]
light: DIQMTQSPSSLSASVGDRVTITCQASQDISNYLNWYQQKPGKAPKLLIYDASNLETGVPSRFSGSGSGTDFTFTISSLQPEDIATYYCQQYDTLPLTFGGGTKVEIKRTVAAPSVFIFPPSDEQLKSGTASVVCLLNNFYPREAKVQWKVDNALQSGNSQESVTEQDSKDSTYSLSSTLTLSKADYEKHKVYACEVTHQGLSSPVTKSFNRGEC
- patient samples with low to no binding (ECLU signal below the cut-off point) ([1]; 21 serum samples of adalimumab-treated patients, cut-off 102 ECLU): 16 of the 21
- samples with ECLU signal above the cut-off point ([1]; cut-off 102 ECLU): five out of 21
- ECLU signal above the cut-off point in those five samples ([1]; within the variability of the assay): less than 20%
- Inhibition of soluble human TNFα induced apoptosis of L929 cells (in words) [2]: inhibited
- Inhibition of membrane human TNFα induced apoptosis of L929 cells (in words) [3]: inhibited
- binding to anti-drug antibodies against adalimumab (in words) [4]: low to no binding
- share of the anti-drug antibodies against adalimumab recognized [4]: about 10%
- maximum ECLU signal ([4]; AP-HIMS from monkeys hyperimmunized with adalimumab, bridging with the labeled test antibody): 4000 ECLU
- Internalization into immature and mature dendritic cells (in words) [5]: internalize into immature and mature dendritic cells

B2: Ab5: anti-human TNFα antibody, HC SEQ ID NO: 25, LC SEQ ID NO: 28 (antibody)
heavy: QVQLVQSGAEVKKPGASVKVSCKASGYTFTGYYMHWVRQAPGQGLEWMGWINPYTGGTKYAQKFQGRVTMTRDTSISTAYMELSRLRSDDTAVYYCARDLYGSSNYGMDVWGQGTTVTVSSASTKGPCVFPLAPSSKSTSGGTAALGCLVKDYFPEPVTVSWNSGALTSGVHTFPAVLQSSGLYSLSSVVTVPSSSLGTQTYICNVNHKPSNTKVDKRV[left out - human IgG1 Fc with A378C (EU numbers)]
light: B1 light with D28G, S30R, T93K
- Number of donors containing ≥1 cluster [6]: 8/10
- Number of non-germline clusters across all donors [6]: 3
